Source: PubChem BioAssay AID1721 (National Center for Advancing Translational Sciences (NCATS), 2009)
In all, about 290,000 compounds went through this assay and about 1,100 (0.38%) were called active. The shares of active, inactive and inconclusive entries below differ from those in the screen. Calls come from the whole dose curve; as a rule, active = well fitted inhibition curve with a large enough effect; inconclusive = small, poorly fitted or top-dose-only effect, or another doubt; inactive = no such curve, though single readings can be large or run the other way. Potencies beside an inconclusive call are fits to weak or partial responses and may not hold up.

What follows are compounds tested against Pyruvate kinase (Leishmania mexicana) (UniProt Q27686) (assay: qHTS Assay for Inhibitors of Leishmania Mexicana Pyruvate Kinase (LmPK)). Settings: purified LmPK, Kinase-Glo ATP luminescence, 1 h; activity change, negative = inhibition: at 57.5 µM (top of the series) unless noted.
UniProt Q27686, sequence (Q27686 whole entry, looked up): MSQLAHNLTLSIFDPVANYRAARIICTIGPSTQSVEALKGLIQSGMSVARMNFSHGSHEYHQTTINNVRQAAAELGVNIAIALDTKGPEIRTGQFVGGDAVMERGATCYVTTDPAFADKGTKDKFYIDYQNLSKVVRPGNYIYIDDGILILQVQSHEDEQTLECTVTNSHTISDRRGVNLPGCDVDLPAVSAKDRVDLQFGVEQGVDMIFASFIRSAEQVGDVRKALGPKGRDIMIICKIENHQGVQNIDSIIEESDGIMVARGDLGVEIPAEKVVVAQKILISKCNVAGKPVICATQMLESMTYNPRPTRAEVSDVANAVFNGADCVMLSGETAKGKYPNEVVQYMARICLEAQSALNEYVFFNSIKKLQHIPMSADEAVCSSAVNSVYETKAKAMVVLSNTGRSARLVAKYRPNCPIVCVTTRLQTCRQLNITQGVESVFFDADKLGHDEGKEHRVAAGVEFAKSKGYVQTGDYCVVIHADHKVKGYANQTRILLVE
Summary of the method: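 In 50 mM imidazole pH 7.2 with 7 mM MgCl2, LmPK (0.1 nM) turned over PEP (0.5 mM) and ADP (0.1 mM) for 1 h at room temperature. Luciferase read-out of ATP.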
% is set by controls: 0 for no effect and ±100 for the full control effect; potency is the fitted concentration of half-maximal effect; tags give direction and shape of the fitted curve.

Row | Compound | Potency | activity change, negative = inhibition
1 | O=C(Nc1ccc(OC(=O)c2cccs2)cc1)c1ccco1 | inconclusive: 14.1 µM [falling, partial curve] | –
2 | O=c1[nH]cc(-c2ccc(Br)cc2)n1Cc1ccccc1 | inactive | –
3 | c1ccc(-c2nc3cc4ccccc4cc3[nH]2)nc1 | active: 15.8 µM | –
4 | Cc1nc2nc(-c3ccccc3)cn2nc1C | active: 12.6 µM | –
5 | Cc1ccc(C)c2[nH]c(=O)c(CN(Cc3cccs3)C(=S)NCc3ccco3)cc12 | inactive | –
6 | CC(=O)CSc1ccc(-c2nc3ccccc3[nH]2)cn1 | inconclusive: 25.1 µM [falling, partial curve] | –
7 | CCOC(=O)C(C(C)=O)c1c(Br)c(O)c(O)c2c(C(=O)c3ccc(C)cc3)coc12 (stereo unspecified) | active: 5.62 µM | –
8 | Cc1c(Cl)c(-c2n[nH]c(=S)n2-c2ccc(F)cc2)nn1C | inconclusive: 39.8 µM [falling, single point] | –
9 | Cc1ccc(NC2=Nc3ccccc3CS2)cc1 | inconclusive: 25.1 µM [falling, single point] | –
10 | CC(C)Cn1c(-c2ccc(Br)o2)n[nH]c1=S | inconclusive: 31.6 µM [falling, single point] | –
11 | CCn1c(-c2ccc(C(C)(C)C)cc2)n[nH]c1=S | inconclusive: 25.1 µM [falling, single point] | –
12 | COc1cccc(-c2nnc(-c3ccco3)o2)c1 | inconclusive: 28.2 µM [falling, partial curve] | –
13 | C(=N\c1nc2ccccc2[nH]1)/c1cccs1 | active: 14.1 µM | –
14 | CC(C)c1ccc(-c2nc3ccccc3s2)cc1 | inconclusive: 17.8 µM [falling, partial curve] | –
15 | Cc1occc1C(=O)N/N=C/c1ccc(OCc2ccccc2)cc1 | inconclusive: 25.1 µM [falling, single point] | –
16 | CCCCSc1nnc2c(n1)OC=Nc1ccccc1-2 | inconclusive: 31.6 µM [falling, single point] | –
17 | COc1ccc(/C(N)=N/OC(=O)c2cccs2)cc1 | inconclusive: 25.1 µM [falling, single point] | –
18 | COc1cc(/C=C2\SC(=Nc3ccc(Cl)c(C(=O)O)c3)NC2=O)c(Br)c(Br)c1O | inconclusive: 2.82 µM [falling, full curve] | –
19 | Cc1n[nH]c(=O)nc1N/N=C/c1cccs1 | inconclusive: 15.8 µM [falling, partial curve] | –
20 | COc1cccc(C(=O)O/N=C(\N)c2ccccn2)c1 | active: 14.1 µM | –
21 | CCOc1ccc(-c2ccc(SCC)nn2)cc1 | active: 11.2 µM | –

Row | Compound | Potency | activity change, negative = inhibition
22 | CCc1ccc(OCC(=O)N/N=C(\C)c2ccc(OC(F)F)cc2)cc1 | inactive | –
23 | Oc1ccc(-c2csc(Nc3ccccn3)n2)cc1O | inconclusive: 1.78 µM [falling, full curve] | –
24 | Clc1ccc(-c2nnc(NC3=NCCCCC3)o2)cc1 | inconclusive: 14.1 µM [falling, partial curve] | –
25 | COc1ccc(/C=C/C(=O)NC(=S)N2CCOCC2)cc1 | inconclusive: 31.6 µM [falling, single point] | –
26 | CN(Cc1ccon1)C(=O)CCc1nnc(CCCCc2ccccc2)o1 | inactive | –
27 | CCCC[C@]12Cc3ccccc3C(O1)c1c(cc(-c3ccccc3)oc1=O)O2 | – | inactive: -6.99% [at 11.5 µM]
28 | S=c1[nH]nc(CSCc2ccccc2Cl)n1C1CCCCC1 | inconclusive: 20 µM [falling, single point] | –
29 | Cc1n[nH]c(=S)n1-c1cccc(Cl)c1 | inconclusive: 31.6 µM [falling, single point] | –
30 | O=C(Nc1ccc(N2CCOCC2)cc1)c1cccc(S(=O)(=O)N2CCCCC2)c1 | inactive | –
31 | Cn1cccc1C(=O)OCc1csc(-c2ccccc2)n1 | active: 14.1 µM | –
32 | CCCNC(=O)c1c(N)n(Cc2ccco2)c2nc3ccccc3nc12 | inactive | –
33 | CN(C)C(=O)c1cc(C(=O)c2ccc(C(F)(F)F)cc2F)c[nH]1 | inactive | –
34 | FC(F)(F)c1ccc(Cl)c(-n2c(-c3cc(C4CC4)[nH]n3)n[nH]c2=S)c1 | inconclusive: 39.8 µM [falling, single point] | –
35 | CC(=O)c1ccc(-n2c(-c3cc(-c4ccsc4)n[nH]3)n[nH]c2=S)cc1 | active: 20 µM | –
36 | COc1ccc(/C=C/C(=O)c2ccccc2O)cc1 | inconclusive: 25.1 µM [falling, partial curve] | –
37 | O=C(NCCNC(=O)c1ccc(-c2ccc(Cl)c(Cl)c2)o1)c1cnccn1 | inactive | –
38 | N/C(=N\OC(=O)CCC1CCCCC1)c1ccccn1 | inconclusive: 15.8 µM [falling, partial curve] | –
39 | Oc1ccccc1-c1n[nH]c(=S)n1Cc1ccco1 | inconclusive: 11.2 µM [falling, partial curve] | –
40 | O=C(Nc1ccc(Br)cc1)Nc1ccccc1F | inconclusive: 17.8 µM [falling, partial curve] | –
41 | O=C(CCCOc1ccc(Cl)cc1Cl)Nc1ccccn1 | inactive | –
42 | CCOC(=O)c1oc2ccccc2c1NC(=O)c1ccco1 | inactive | –

Row | Compound | Potency | activity change, negative = inhibition
43 | O=C1NN(c2cccc(Br)c2)C(=O)/C1=C/c1ccc(-c2cc([N+](=O)[O-])ccc2O)o1 | inconclusive: 25.1 µM [falling, partial curve] | –
44 | O=C(Nc1ccc(S(=O)(=O)Nc2ncccn2)cc1)c1nn(Cc2ccccc2)c(=O)c2ccccc12 | inactive | –
45 | Nc1ccc2nc(-c3ccc(N)c(Cl)c3)[nH]c2c1 | inconclusive: 31.6 µM [falling, single point] | –
46 | S=c1[nH]nc(Cn2cnc3ccccc32)n1-c1ccccc1Cl | inconclusive: 17.8 µM [falling, partial curve] | –
47 | CCN(CC)C(=O)CSc1nc2c(sc(=S)n2Cc2ccco2)c(=O)n1-c1ccccc1 | inactive | –
48 | CCCC(C)c1nnc(NC(=O)CCS(=O)(=O)c2ccccc2)s1 (stereo unspecified) | inactive | –
49 | O=C(c1cccc(Cl)c1)c1nn(-c2ccccc2)c(=O)cc1C(F)(F)F | inactive | –
50 | Cc1cc(NC(=O)COc2ccc(C)c(C)c2)no1 | inactive | –
51 | Fc1ccc(-c2nc3n(n2)Cc2ccccc2-3)cc1 | active: 3.55 µM | –
52 | C/C(=N\OC(=O)c1ccccc1F)c1nccs1 | inconclusive: 6.31 µM [falling, partial curve] | –
53 | Cn1cccc1/C=N/NC(=O)c1ccn[nH]1 | inconclusive: 20 µM [falling, single point] | –
54 | COc1cccc(-c2nc(-c3ccccn3)no2)c1 | active: 12.6 µM | –
55 | O=C(Nc1ccc(N2CCOCC2)cc1)c1ccc([N+](=O)[O-])o1 | inconclusive: 28.2 µM [falling, single point] | –
56 | COc1ccc(-c2cc(C(=O)Nc3cccc(O)c3)no2)cc1 | inconclusive: 14.1 µM [falling, partial curve] | –
57 | COc1ccc(NC(=O)Nc2cc(C)ccc2F)cc1 | inconclusive: 25.1 µM [falling, partial curve] | –
58 | Cc1cc(C(=O)COC(=O)c2ccccc2O)c(C)n1Cc1cccs1 | inconclusive: 28.2 µM [falling, partial curve] | –
59 | COc1ccc(CN=C2Nc3ccccc3CS2)cc1 | inconclusive: 28.2 µM [falling, single point] | –
60 | CN1CCN(C2=C(Cl)C(=O)C(c3cnc(N4CCCCC4)s3)=C(Cl)C2=O)CC1 | inconclusive: 39.8 µM [falling, single point] | –
61 | COC(=O)c1nn(-c2ccc3c(c2)OCO3)cc1O | active: 17.8 µM | –
62 | CN1/C(=C\C(=O)c2cccs2)Sc2ccccc21 | active: 11.2 µM | –
63 | CCOc1ccc2nc(SCc3ccc(OC)cc3)sc2c1 | inactive | –

Row | Compound | Potency | activity change, negative = inhibition
64 | CC1Cc2cc(/C(O)=C3/C(=O)C(=O)N(CCCn4ccnc4)C3c3ccco3)ccc2O1 (stereo unspecified) | inactive | –
65 | C=CCn1c(=O)/c(=C/c2ccc(F)cc2)s/c1=C(\C#N)c1nnc2n1CCCCC2 | inactive | –
66 | CC(=O)c1cn(Cc2ccccc2)c(=O)[nH]c1=O | inconclusive: 39.8 µM [falling, single point] | –
67 | COc1ccc2nc3ccccc3nc2c1 | inconclusive: 17.8 µM [falling, partial curve] | –
68 | COc1ccc(/C=N/N2C(C)CCCC2C)cc1OC (stereo unspecified) | inactive | –
69 | CCOC(=O)C1=C(C)NC(=O)NC1c1ccc(-c2ccc(F)cc2)o1 (stereo unspecified) | inactive | –
70 | Cc1ccc(N2Cc3ccccc3C2=O)cc1 | inconclusive: 20 µM [falling, partial curve] | –
71 | CCc1ccc(S(=O)(=O)/N=C2/C=C(Sc3ncn[nH]3)C(=O)c3ccccc32)cc1 | inconclusive: 7.94 µM [falling, partial curve] | –
72 | COc1ccc(-n2c(-c3ccco3)n[nH]c2=S)cc1 | inconclusive: 17.8 µM [falling, partial curve] | –
73 | COc1ccccc1-n1c(CNC(=O)c2cccs2)n[nH]c1=S | inconclusive: 39.8 µM [falling, single point] | –
74 | c1ccc(-c2noc(-c3ccco3)n2)nc1 | active: 15.8 µM | –
75 | Cc1cc([N+](=O)[O-])cc2c1NC(=O)C2(O)N1CCCC(C)C1 (stereo unspecified) | inconclusive: 39.8 µM [falling, single point] | –
76 | O=C(Cc1cn2ccsc2n1)OCc1ccccc1 | inactive | –
77 | CC[n+]1c(C)sc2cc(C)ccc21 | inactive | –
78 | O=C(CNC(=O)c1ccncc1)N/N=C/c1cccc([N+](=O)[O-])c1 | inactive | –
79 | Nc1[nH][nH]c(=O)c1N=Nc1ccc2c(c1)OCO2 | inconclusive: 20 µM [falling, single point] | –
80 | COc1ccccc1C(=O)O/N=C(\N)c1ccccn1 | inconclusive: 25.1 µM [falling, partial curve] | –
81 | Cc1ccc(-c2c[nH]c(=S)n2-c2ccccc2F)cc1 | inconclusive: 20 µM [falling, partial curve] | –
